# Measured values published in the supplement of paper PMC4166925.
# ± gives the standard deviation of the averaged measurements. In all, about 33,000 sequences were measured (“E-score (dimensionless, -0.5 to 0.5)”: median about -0.049, highest 2% from about 0.37 on). The list shows a part of the results.
# Test system: T1, PmTbr T-box DNA-binding domain (GST fusion)
# T1 sequence: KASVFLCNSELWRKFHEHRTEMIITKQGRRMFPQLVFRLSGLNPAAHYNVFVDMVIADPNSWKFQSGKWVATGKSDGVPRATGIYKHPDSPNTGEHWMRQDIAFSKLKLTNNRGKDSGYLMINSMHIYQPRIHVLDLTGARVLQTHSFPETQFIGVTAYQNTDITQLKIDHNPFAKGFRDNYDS
# Assay: PBM E-score of 8-mer (E-score (dimensionless, -0.5 to 0.5)); Tbr is Tbrain of the sea star Patiria miniata (Pm) or the sea urchin Strongylocentrotus purpuratus (Sp); higher = stronger binding preference; most listed sequences are background and not binding sites
# Details: the construct has about 5 more residues each side
# Outline: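 Universal Agilent oligonucleotide arrays, made double-stranded by primer extension, were incubated with 200 nM GST-fused Tbr T-box DNA-binding domain in PBS (pH 7.5). The protein was expressed in BL21 E. coli at 20 °C and purified by glutathione affinity chromatography. After scanning and quantification, the Universal PBM Analysis Suite assigned an enrichment E-score to each ungapped 8-mer, averaged over duplicate arrays.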
row,Sequence,PBM E-score of 8-mer
1,ACGTCTAA,-0.0591 ± 0.058
2,CCTTTTCG,-0.0844 ± 0.11
3,CGCAACAC,0.356 ± 0.033
4,GCGCAACC,0.0116 ± 0.096
5,GGCCAGAA,-0.0717 ± 0.046
6,CAGACGAA,-0.175 ± 0.063
7,CGCTTCGA,0.0101 ± 0.081
8,CGAGCAAA,-0.0522 ± 0.042
9,AAACCGCG,0.118 ± 0.05
10,CCGAGATA,0.0154 ± 0.0047
11,ACTACTTA,-0.00428 ± 0.033
12,TCCCGGGA,-0.0648 ± 0.018
13,ACAACAAA,0.126 ± 0.034
14,CCTCGGCA,0.142 ± 0.033
15,CTCTGGAA,0.0136 ± 0.06
16,AAGCACCG,-0.0942 ± 0.069
17,CACTGGAC,0.000895 ± 0.02
18,GCGCCTGA,0.0755 ± 0.0086
19,ATAGGGAT,-0.166 ± 0.038
20,GTCACAAC,0.319 ± 0.0069
21,GCGAGGAC,0.0922 ± 0.051
22,CGACGGAA,-0.107 ± 0.056

row,Sequence,PBM E-score of 8-mer
1,CTTGCTTC,-0.315 ± 0.0093
2,AGTTCATA,-0.23 ± 0.0044
3,AGAAATCA,-0.0217 ± 0.029
4,CCCCTAGA,-0.178 ± 0.0024
5,CCACACAC,0.304 ± 0.011
6,CTCCGGAC,-0.203 ± 0.042
7,AACGCGCG,0.2454 ± 0.0014
8,ATGGAAAT,-0.169 ± 0.037
9,GGCAGCGA,0.126 ± 0.0052
10,GGGATACA,-0.16 ± 0.018
11,ACCGAGGC,-0.0231 ± 0.018
12,GACGGTCA,0.0599 ± 0.04
13,GGTCTCGA,-0.177 ± 0.055
14,CTACGCAA,-0.194 ± 0.097
15,CCTAGCAG,-0.0314 ± 0.049
16,GTTGGTTA,0.0594 ± 0.025
17,AGTCTTAT,-0.204 ± 0.01
18,AGTTTACG,-0.0581 ± 0.0058
19,CACCTGGG,0.361 ± 0.029
20,AGTGATGG,0.202 ± 0.025
21,AGCCACGA,0.0169 ± 0.03
22,CCATCGAC,-0.0162 ± 0.054

row,Sequence,PBM E-score of 8-mer
1,ATGGTAAC,-0.0792 ± 0.013
2,TAGAAAAA,-0.103 ± 0.027
3,AACTATGA,-0.109 ± 0.012
4,GAACGTCC,-0.211 ± 0.13
5,AGGCCATA,-0.117 ± 0.039
6,ACTTAGTG,0.000245 ± 0.034
7,AGGATAAC,0.0317 ± 0.0068
8,ATCGATAC,-0.00677 ± 0.013
9,GCCACGTA,-0.033 ± 0.11
10,CCCGCAGC,-0.0306 ± 0.016
11,GGGAAATA,-0.189 ± 0.036
12,CTATCTGC,-0.0595 ± 0.065
13,GGCAGTTA,0.0342 ± 0.0068
14,CAACGGCA,-0.0419 ± 0.033
15,GATCGCAA,0.244 ± 0.013
16,CGCGGTCC,0.00125 ± 0.00074
17,CATGCTTC,-0.194 ± 0.045
18,AAATGAAC,-0.22 ± 0.033
19,GACAGATA,0.164 ± 0.043
20,GTCATTAA,-0.0808 ± 0.13
21,CAGCTACG,-0.0325 ± 0.0091
22,CACGCTGA,0.017 ± 0.027

row,Sequence,PBM E-score of 8-mer
1,CAGCGCAG,-0.158 ± 0.035
2,CAAGACCC,-0.0367 ± 0.0093
3,AAGACTCG,0.0824 ± 0.011
4,CCGCGGCG,-0.0137 ± 0.033
5,CCAGTGAA,-0.169 ± 0.068
6,GACGCCTA,0.288 ± 0.0027
7,CGATTGTC,0.00791 ± 0.025
8,CAAAAGCC,-0.0578 ± 0.12
9,CTGATCGA,-0.113 ± 0.011
10,AATACAGC,-0.125 ± 0.023
11,TCCCCAAA,-0.149 ± 0.13
12,ACTTCATC,-0.0364 ± 0.0059
13,GAAGGTAC,-0.214 ± 0.046
14,AGGTCGTG,0.0158 ± 0.083
15,AGGCCACA,-0.017 ± 0.05
16,AGGTAATA,-0.281 ± 0.016
17,GTGGCCCA,-0.205 ± 0.02
18,ATCCCTCG,0.0153 ± 0.12
19,GAGGCCAC,-0.11 ± 0.0055
20,CGTGATAA,0.251 ± 0.034
